Experimental data taken from the supplement of paper PMC4967469.
The IC50 comes from the fitted curve, where viability falls to half of the control; where the fit passes the top or lowest dose, that dose stands as a limit. For AUC the same curve is integrated over the 256-fold range of doses and scaled to a fraction: 1 means no effect, lower means more sensitive. For part of these data: A top dose marked as inferred comes from the curve model; the source does not state it.

How the values were obtained:
Assay in all cases: Viability of human cancer cell lines after 72 h of drug (GDSC screen)
[1] = compound: CNC(=O)c1cc(Oc2ccc(NC(=O)Nc3ccc(Cl)c(C(F)(F)F)c3)cc2)ccn1 [Sorafenib]; conditions: top dose 4 µM
Description: (§1)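 Human cancer cell lines in 384-well plates, medium with 10% serum, drug for 72 h over a 256-fold dose range (nine 2-fold or five 4-fold steps up to the top dose). Adherent lines were fixed and stained with the nucleic acid dye Syto60, suspension lines read with resazurin; signal relative to control wells, capped at 0 and 100%. One two-parameter sigmoid per drug and line, fitted in a mixed model over all curves with the slope shared within a line.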

[2] = compound: COc1cc(N2CCN(C)CC2)ccc1Nc1nc(N)c(C(=O)c2c(Cl)cccc2Cl)s1 [XMD14-99]; conditions: top dose 10.24 µM; top dose inferred
Description: as §1

[3] = compound: Cc1cc([N+](=O)[O-])ccc1NS(=O)(=O)c1cc(Cl)ccc1Cl [FH535]; conditions: top dose 32 µM; top dose inferred
Description: as §1

[4] = compound: Cc1n[nH]c2ccc(-c3cncc(OC[C@@H](N)Cc4c[nH]c5ccccc45)c3)cc12 [A-443654]; conditions: top dose 1.024 µM; top dose inferred
Description: as §1

[5] = compound: Cc1nc(Nc2ncc(C(=O)Nc3c(C)cccc3Cl)s2)cc(N2CCN(CCO)CC2)n1 [Dasatinib]; conditions: top dose 1.28 µM
Description: as §1

[6] = compound: O=C(NC1CCNCC1)c1n[nH]cc1NC(=O)c1c(Cl)cccc1Cl [AT-7519]; conditions: top dose 10.24 µM; top dose inferred
Description: as §1

Row | Cell Line | AUC [1] | IC50 [1] [nM] | AUC [2] | IC50 [2] [nM] | AUC [3] | IC50 [3] [nM] | AUC [4] | IC50 [4] [nM] | AUC [5] | IC50 [5] [nM] | AUC [6] | IC50 [6] [nM]
1 | NB14 (neuroblastoma, adherent) | 0.768 | 1420 | 0.979 | > 10200 | 0.63 | 4450 | 0.93 | > 1020 | 0.989 | > 1280 | 0.856 | 7470
2 | A4-Fuk (B-cell lymphoma, suspension) | 0.856 | 3450 | 0.985 | > 10200 | 0.759 | 11600 | 0.558 | 93 | 0.918 | > 1280 | 0.617 | 1370
3 | TC-71 (Ewing sarcoma, adherent) | 0.966 | > 4000 | 0.967 | > 10200 | 0.88 | 23700 | 0.875 | 720 | 0.992 | > 1280 | 0.644 | 1490
4 | GI-ME-N (neuroblastoma, adherent) | 0.88 | > 4000 | 0.908 | > 10200 | 0.744 | 13200 | 0.738 | 401 | 0.486 | 72.5 | 0.556 | 961
5 | NOMO-1 (acute myeloid leukaemia, suspension) | 0.902 | > 4000 | 0.971 | > 10200 | 0.648 | 5440 | 0.78 | 482 | 0.98 | > 1280 | 0.333 | 205
6 | TGBC1TKB (biliary tract, adherent) | 0.95 | > 4000 | 0.989 | > 10200 | 0.627 | 4470 | 0.61 | 128 | 0.481 | 70.9 | 0.978 | > 10200
7 | Farage (B-cell lymphoma, suspension) | 0.887 | 3070 | 0.983 | > 10200 | 0.706 | 6690 | 0.702 | 210 | 0.113 | 6.54 | 0.221 | 120
8 | P30-OHK (lymphoblastic leukaemia, suspension) | 0.95 | > 4000 | 0.902 | 9380 | 0.788 | 11600 | 0.972 | > 1020 | 0.99 | > 1280 | 0.263 | 155
9 | TE-12 (oesophagus, suspension) | 0.86 | > 4000 | 0.948 | > 10200 | 0.575 | 3350 | 0.646 | 178 | 0.358 | 29.6 | 0.777 | 5040
10 | CESS (acute myeloid leukaemia, suspension) | 0.89 | 3450 | 0.919 | > 10200 | 0.729 | 7960 | 0.655 | 161 | 0.989 | > 1280 | 0.362 | 283
11 | NCI-H2141 (small cell lung carcinoma, suspension) | 0.961 | > 4000 | 0.99 | > 10200 | 0.906 | > 32000 | 0.826 | 599 | 0.967 | > 1280 | 0.709 | 2450
12 | ALL-SIL (T-cell leukaemia, suspension) | 0.77 | 1320 | 0.963 | > 10200 | 0.57 | 3020 | 0.721 | 244 | 0.025 | < 5 | 0.208 | 104
13 | SCC-15 (head and neck, adherent) | 0.905 | > 4000 | 0.976 | > 10200 | 0.616 | 4650 | 0.866 | > 1020 | 0.873 | > 1280 | 0.67 | 2250
14 | HDLM-2 (Hodgkin lymphoma, suspension) | 0.961 | > 4000 | 0.989 | > 10200 | 0.697 | 7060 | 0.947 | > 1020 | 0.989 | > 1280 | 0.412 | 369
15 | NB7 (neuroblastoma, adherent) | 0.828 | 2610 | 0.95 | > 10200 | 0.66 | 5680 | 0.936 | > 1020 | 0.961 | > 1280 | 0.596 | 1190
16 | ES7 (Ewing sarcoma, adherent) | 0.955 | > 4000 | 0.849 | 7980 | 0.751 | 10800 | 0.927 | > 1020 | 0.928 | > 1280 | 0.37 | 277
17 | REH (B-cell leukaemia, suspension) | 0.966 | > 4000 | 0.891 | > 10200 | 0.763 | 11100 | 0.915 | > 1020 | 0.944 | > 1280 | 0.271 | 147
18 | DMS-114 (small cell lung carcinoma, adherent) | 0.934 | > 4000 | 0.981 | > 10200 | 0.878 | > 32000 | 0.895 | > 1020 | 0.974 | > 1280 | 0.848 | 9400
19 | ROS-50 (B-cell leukaemia, suspension) | 0.943 | > 4000 | 0.961 | > 10200 | 0.821 | 25600 | 0.895 | > 1020 | 0.956 | > 1280 | 0.903 | > 10200
20 | MZ2-MEL (melanoma, adherent) | 0.912 | > 4000 | 0.924 | > 10200 | 0.453 | 1460 | 0.815 | 687 | 0.673 | 266 | 0.56 | 964
21 | COLO-824 (breast, adherent) | 0.954 | > 4000 | 0.952 | > 10200 | 0.809 | 17200 | 0.929 | > 1020 | 0.988 | > 1280 | 0.679 | 2040
